# According to publication PMC4336329 (PLoS ONE, 2015):
# The whole screen tested about 310,000 compounds, of which about 2,200 (0.71%) showed an effect of 50% or more. Effects have a minus sign here. Some of the results follow.
# Molecular target: human ether-à-go-go-related gene (hERG) potassium channel (human, UniProt Q12809)
# Assay: primary screen, population patch clamp on CHO cells stably expressing hERG
# human ether-à-go-go-related gene (hERG) potassium channel, sequence (Q12809 whole entry, looked up): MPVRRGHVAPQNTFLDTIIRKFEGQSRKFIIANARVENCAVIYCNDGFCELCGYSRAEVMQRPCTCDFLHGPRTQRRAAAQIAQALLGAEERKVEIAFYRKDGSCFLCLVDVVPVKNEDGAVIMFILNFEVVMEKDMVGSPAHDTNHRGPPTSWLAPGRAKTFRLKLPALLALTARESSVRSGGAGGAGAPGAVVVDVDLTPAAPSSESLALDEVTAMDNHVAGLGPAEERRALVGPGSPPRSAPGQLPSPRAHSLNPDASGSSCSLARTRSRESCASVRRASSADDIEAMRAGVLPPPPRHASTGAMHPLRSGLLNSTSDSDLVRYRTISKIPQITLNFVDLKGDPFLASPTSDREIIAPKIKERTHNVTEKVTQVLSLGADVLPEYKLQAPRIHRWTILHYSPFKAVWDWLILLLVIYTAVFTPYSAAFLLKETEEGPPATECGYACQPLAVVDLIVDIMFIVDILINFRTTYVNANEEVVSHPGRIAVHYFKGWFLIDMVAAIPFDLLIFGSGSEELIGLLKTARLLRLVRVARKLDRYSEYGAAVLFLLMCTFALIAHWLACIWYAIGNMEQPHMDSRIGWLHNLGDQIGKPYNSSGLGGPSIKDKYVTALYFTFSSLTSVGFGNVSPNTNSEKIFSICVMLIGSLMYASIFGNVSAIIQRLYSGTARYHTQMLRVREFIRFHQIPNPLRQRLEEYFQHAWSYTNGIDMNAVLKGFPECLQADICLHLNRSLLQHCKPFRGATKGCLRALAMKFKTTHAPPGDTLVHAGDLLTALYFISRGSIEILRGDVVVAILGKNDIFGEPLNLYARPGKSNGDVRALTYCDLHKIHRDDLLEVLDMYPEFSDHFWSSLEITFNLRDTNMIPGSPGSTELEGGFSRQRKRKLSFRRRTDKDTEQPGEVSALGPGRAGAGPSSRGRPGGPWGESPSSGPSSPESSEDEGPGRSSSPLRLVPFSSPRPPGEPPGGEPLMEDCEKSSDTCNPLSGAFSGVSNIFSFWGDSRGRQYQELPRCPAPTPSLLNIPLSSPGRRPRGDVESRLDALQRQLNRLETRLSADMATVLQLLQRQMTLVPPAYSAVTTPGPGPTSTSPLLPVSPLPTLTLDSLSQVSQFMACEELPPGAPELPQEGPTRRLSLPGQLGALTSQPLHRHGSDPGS
row,Compound,"hERG current change (%, negative = inhibition) at 1uM [%]"
1,CCOC(=O)C1=NNC2C(=O)N(CC)C(=O)C12 (stereo not shown),2.82
2,C/C(CC(=O)NC1CCCCC1)=N\NC(=O)c1ccccc1C,12.2
3,COc1ccc(OCCC(=O)OCC(=O)c2ccc[nH]2)cc1,16.8
4,Cc1ccc(S(=O)(=O)Nc2cccc(C(=O)N3CCOCC3)c2)cc1,6.98
5,COc1cc(N/C=C(\C(C)=O)c2ccccc2)cc(OC)c1,8.39
6,Cc1ccc2nc(C)cc(SCC(=O)N/N=C/c3ccco3)c2c1,6.8
7,CCNC(=S)Nc1ccc(Cl)c([N+](=O)[O-])c1,-2.68
8,CC(=O)Nc1c2c(nn1-c1ccccc1C)CS(=O)C2 (stereo not shown),9.69
9,O=C(CSc1nc2[nH]ncc2c(=O)[nH]1)N1CCCCC1,18.1
10,Cc1ccc2oc(-c3cccc(NC(=O)Cn4cnc5c(=O)n(C)c(=O)n(C)c54)c3)nc2c1,5.3
11,Cc1ccc2nc3c(cc(C(=O)NCCN4CCOCC4)c(=N)n3CCCN3CCOCC3)c(=O)n2c1,5.89
12,CC(C)(C)NC(=O)COC(=O)c1ccc(S(=O)(=O)N2CCCC2)cc1,3.36
13,O=C(COC(=O)c1ccc(F)cc1)NCCc1ccc(F)cc1,2.89
14,Cc1noc(C)c1S(=O)(=O)N1CCC(C(=O)O)CC1,4.03
15,N#CC1=C(N)SC(N)=C(C#N)C1c1ccoc1,2.57
16,Cc1ccc(S(=O)(=O)N/N=C/c2cccc(OC3CSC3)c2)cc1,0.22
17,CC1CCc2[nH]c3ccc(C(=O)N4CCCC(C(F)(F)F)C4)cc3c2C1 (stereo not shown),21.6
18,Cc1ccc(-c2nnc(CSc3nnc(COc4ccccc4)n3-c3ccccc3)o2)cc1,7.62
19,CN=Cc1cc(-c2ccccc2)sc1O,10.5
20,CCc1nn(CC(=O)NCCCN2CCOCC2)c(=O)c2cc3sccc3n12,15.6
21,O=C(c1cc(S(=O)(=O)N2CCCC2)c(Cl)cc1Cl)N1CCCC1,13.6
22,CCN(CC)C(=O)Cn1cc(S(=O)(=O)CC(=O)N2CC(C)OC(C)C2)c2ccccc21 (stereo not shown),1.72
23,O=C(O)/C=C/C(=O)c1ccc(O)cc1,10.6
24,O=C(Nc1ccc(C(=O)N2CCCCC2)cc1)Nc1cccc(Cl)c1,16.9
25,CCC1CCCCN1CCCNC(=O)CNC(=O)c1nn(-c2ccc(OC)c(Cl)c2)c(=O)c2ccccc12 (stereo not shown),2.34
26,O=[N+]([O-])c1ccc(Cl)c(C2Nc3cccc4cccc(c34)N2)c1,13
27,N#Cc1c(N)n(-c2ccccc2)c(=O)c2cc([N+](=O)[O-])ccc12,18
28,CCOC(=O)N1CCN(C(=O)c2ccc3c(c2)N(Cc2ccc(C)cc2)CCS3)CC1,14.6

row,Compound,"hERG current change (%, negative = inhibition) at 1uM [%]"
1,Cc1cc(NC(=O)CSCC(=O)Nc2cc(C(F)(F)F)ccc2N2CCCC2)no1,16.5
2,CCN(CCCNC(=O)CCNC(=O)Cn1cnc2ccccc2c1=O)c1cccc(C)c1,7.36
3,O=C(NNC(=O)c1ccccn1)c1cccc([N+](=O)[O-])c1,9.38
4,Cc1ccc(S(=O)(=O)N2CCCC2C(=O)NCc2ccccc2Cl)cc1 (stereo not shown),10.4
5,O=C1C2C3CCC(C3)C2C(=O)N1c1ccc2ccccc2c1 (stereo not shown),10.1
6,COc1ccc(C(CNS(=O)(=O)c2ccc(C)cc2)N2CCN(C)CC2)cc1 (stereo not shown),3.76
7,Cc1nc2ccc(NC(=O)c3ccc(F)c(S(=O)(=O)N4CCOCC4)c3)cc2s1,4.94
8,CCOc1ccc(C2C=C(c3ccc(F)cc3)Nc3ncnn32)cc1 (stereo not shown),3.04
9,O=C(C1CC1)N(Cc1ccco1)c1nc(-c2ccccc2)cs1,4.58
10,O=C(Nc1cccc(Cl)c1)N1N=CCC1c1ccccc1 (stereo not shown),10.9
11,CN1CCN(c2ccc(Cl)cc2NC(=O)c2ccc(S(=O)(=O)N(C)C)cc2)CC1,16.1
12,O=C(CN1CCN(S(=O)(=O)N2CCCCCC2)CC1)Nc1cc(Cl)ccc1Cl,11.2
13,Cc1cccc2cc(C#N)c(N3CCC(O)CC3)nc12,11.9
14,COc1ccc(-c2cc(-c3ccc(Br)cc3)nc3ncnn23)cc1OC,5.18
15,CCc1ccc(N2C(=O)NC(=O)/C(=C/c3cccn3CCOc3ccc(C)cc3)C2=O)cc1,2.08
16,Cc1ccc(-c2nc(N3CCOCC3)sc2C(=O)N2CCCCC2)cc1,6.67
17,CCn1c(SCC(=O)N2CCN(c3ccccc3)CC2)nnc1-c1cc2cc(Cl)ccc2o1,3.45
18,S=C(Nc1cccc(Br)c1)N1CCn2cccc2C1c1cccnc1 (stereo not shown),5.58
19,CCc1nnc(NC(=O)CN2C(=O)N(C)C3(CCCCC3)C2=O)s1,6.94
20,CCCN(C(=O)c1ccc(S(=O)(=O)N2CCCC2)cc1)C1CCS(=O)(=O)C1 (stereo not shown),11.5
21,CCOC(=O)c1c(NC(=O)Cn2cnc3scc(-c4ccc(C)cc4)c3c2=O)sc(C)c1C,-14.2
22,O=C(CCc1c[nH]c2ccccc12)NCc1ccco1,6.23
23,Cc1cc(OCCn2cc(/C(N)=N/O)c3ccccc32)ccc1Cl,8.32
24,Cc1cnc(C(=O)OCC(=O)Nc2ccc(OCc3ccccc3)cc2)cn1,5.72
25,CCCCCCN(C(=O)CCCCCN1C(=O)NC(c2ccc([N+](=O)[O-])cc2)C(C(=O)OCc2ccccc2)=C1C)C(C(=O)NCCCC)c1ccc(OCC(=O)OC)c(C(=O)OC)c1 (stereo not shown),13.6
26,CCOC(=O)C=Nc1c(N)n(C)c(=O)n(C)c1=O,4.39
27,CC(C)Cc1cc(C(=O)Nc2cc(C(F)(F)F)ccc2Cl)no1,9.33
